According to publication doi:10.1101/2025.11.14.688473:
Results are given in words; binding and its absence hold for the method and conditions named. Binding seen in cells or lysates may run through a third protein. Some entries that bind do so weakly or less than the wild type. Sequences can lack the tags named with a protein.

T1: Atg9-PA (S. cerevisiae) (UniProt Q12142)
T1 sequence: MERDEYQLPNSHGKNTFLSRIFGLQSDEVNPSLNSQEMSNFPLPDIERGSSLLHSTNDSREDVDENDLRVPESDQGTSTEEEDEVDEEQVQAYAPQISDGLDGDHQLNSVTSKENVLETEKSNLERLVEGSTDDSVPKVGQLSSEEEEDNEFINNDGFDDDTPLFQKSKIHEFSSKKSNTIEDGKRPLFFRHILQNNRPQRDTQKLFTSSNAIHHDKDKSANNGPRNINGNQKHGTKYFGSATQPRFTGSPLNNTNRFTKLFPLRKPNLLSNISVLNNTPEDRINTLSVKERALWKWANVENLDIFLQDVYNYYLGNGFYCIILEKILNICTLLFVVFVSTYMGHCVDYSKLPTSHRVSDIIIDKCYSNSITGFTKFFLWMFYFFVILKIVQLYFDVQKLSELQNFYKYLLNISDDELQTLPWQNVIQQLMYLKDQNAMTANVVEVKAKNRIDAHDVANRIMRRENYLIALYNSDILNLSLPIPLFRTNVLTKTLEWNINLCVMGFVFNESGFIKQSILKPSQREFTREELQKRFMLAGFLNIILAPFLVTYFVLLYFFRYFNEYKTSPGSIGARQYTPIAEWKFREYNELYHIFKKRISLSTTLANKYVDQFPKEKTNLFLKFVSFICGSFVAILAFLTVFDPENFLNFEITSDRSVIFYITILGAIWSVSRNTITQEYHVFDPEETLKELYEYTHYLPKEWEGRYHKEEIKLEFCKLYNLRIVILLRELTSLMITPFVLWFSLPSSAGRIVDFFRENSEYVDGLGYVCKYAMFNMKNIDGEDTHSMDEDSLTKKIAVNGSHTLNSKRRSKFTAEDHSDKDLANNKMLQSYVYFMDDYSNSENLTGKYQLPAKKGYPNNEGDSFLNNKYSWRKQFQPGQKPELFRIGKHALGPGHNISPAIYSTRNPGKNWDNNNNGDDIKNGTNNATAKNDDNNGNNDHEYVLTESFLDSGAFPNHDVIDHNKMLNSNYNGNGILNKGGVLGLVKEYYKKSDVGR

B1: GFP-Atg11 DLL (protein, UniProt Q12527 1-1178)
chain: MADADEYSTAPTQQEITPLQTTATIINAISGECITTNVDFFVSLDKFKQFIARKWKIPPDQLLILLPYGNKLKPSMFKELLINRSFTLNDFYVYDRRLFSLVSKPTPTNLLTSKDSNPMNSPNSNDLTETLEYLIKNSHISQYQGSDTIMIKPMPSPLEDADVDLSRLNYHSVTSLLTTNLGWLSALEIDVHYFKSLIPDIIAHIKRIFDGLTVCSQYLKLYCFDVESLYNSNVQFLNQLVDNGMTSKWEKCFNDTLSKLTALEGDSLQKFINIESLLENEKSVKILNHSINGKLNKIKREIDENASFRDIITVNIDRLRQMFTPNESKFELEDQMAESFEVLVSEMRTRSRNVLDKEEEEFNSQEFLKSMNVMLEKDKKESVKTLFTISQALYSQIGELIDLKKSLQKHAVAILGNIAFTQMEILGIKRLLLNECNKDLELYKKYEVEFAQVEDLPLIYGLYLIEKYRRLSWFQQILSFISNFNQDLELFKQNELRTRNKWVKNFGSIATVFCEAALSSSDFKRANEYHSHTSPPNEDEEDENENSIANYRQDLVKVSQAIDNYMTQIKETDVSEPIIDLLSKTLFETKRFHIIYSNFKNNNNNSSNGNSISPEGSIALKSDDVVKGYKTRIKKLESLLHEFQYSDIGHWPQGVLNTHLKPFRGSATSINKKKFLGASVLLEPANISEVNIDSVSQANNHQIQELESNVDDLLHQLQLLKEENNRKSMQISEMGKKISDLEVEKTAYRETLTNLNQELARLTNEEQSHRTEIFTLNASFKKQLNDIISQDNEKIEKLTGDYDDVSKSRERLQMDLDESNKKHEQEVNLLKADIERLGKQIVTSEKSYAETNSSSMEKGEKFETIPLAEDPGRENQISAYTQTLQDRIFDIISTNIFILENIGLLLTFDNNNNIQIRRVKGLKKGTAQSNILDESTQMLDAHDNSLIKSPVFQKLKDEYELIKSVANGSEKDTQQSIFLGNITQLYDNKLYEVAVIRRFKDIETLAKKLTKENKIKRTLLERFQREKVTLRNFQIGDLALFLPTRENVNSVGSMSSSTSSLSSSFSSVDLSTPPPLDAMSIQSSPSVIHSNVINQASISGRDKNKLMRPWAAFTAFEESTRYFLKDEKGLTKGKEWFVGRIVTLEHFVADSPSNNPFRLPKGSVWFQVTAVVVSYQGV
B2: GFP-Atg11 IA3 (protein, UniProt Q12527 1-575; P01094 2-53; Q12527 628-1178)
chain: MADADEYSTAPTQQEITPLQTTATIINAISGECITTNVDFFVSLDKFKQFIARKWKIPPDQLLILLPYGNKLKPSMFKELLINRSFTLNDFYVYDRRLFSLVSKPTPTNLLTSKDSNPMNSPNSNDLTETLEYLIKNSHISQYQGSDTIMIKPMPSPLEDADVDLSRLNYHSVTSLLTTNLGWLSALEIDVHYFKSLIPDIIAHIKRIFDGLTVCSQYLKLYCFDVESLYNSNVQFLNQLVDNGMTSKWEKCFNDTLSKLTALEGDSLQKFINIESLLENEKSVKILNHSINGKLNKIKREIDENASFRDIITVNIDRLRQMFTPNESKFELEDQMAESFEVLVSEMRTRSRNVLDKEEEEFNSQEFLKSMNVMLEKDKKESVKTLFTISQALYSQIGELIDLKKSLQKHAVAILGNIAFTQMEILGIKRLLLNECNKDLELYKKYEVEFAQVEDLPLIYGLYLIEKYRRLSWFQQILSFISNFNQDLELFKQNELRTRNKWVKNFGSIATVFCEDLLSSSDFKRLNEYHSHTSPPNEDEEDENENSIANYRQDLVKVSQAIDNYMTQIKETDVSNTDQQKVSEIFQSSKEKLQGDAKVVSDAFKKMASQDKDGKTTDADESEKHNYGYKTRIKKLESLLHEFQYSDIGHWPQGVLNTHLKPFRGSATSINKKKFLGASVLLEPANISEVNIDSVSQANNHQIQELESNVDDLLHQLQLLKEENNRKSMQISEMGKKISDLEVEKTAYRETLTNLNQELARLTNEEQSHRTEIFTLNASFKKQLNDIISQDNEKIEKLTGDYDDVSKSRERLQMDLDESNKKHEQEVNLLKADIERLGKQIVTSEKSYAETNSSSMEKGEKFETIPLAEDPGRENQISAYTQTLQDRIFDIISTNIFILENIGLLLTFDNNNNIQIRRVKGLKKGTAQSNILDESTQMLDAHDNSLIKSPVFQKLKDEYELIKSVANGSEKDTQQSIFLGNITQLYDNKLYEVAVIRRFKDIETLAKKLTKENKIKRTLLERFQREKVTLRNFQIGDLALFLPTRENVNSVGSMSSSTSSLSSSFSSVDLSTPPPLDAMSIQSSPSVIHSNVINQASISGRDKNKLMRPWAAFTAFEESTRYFLKDEKGLTKGKEWFVGRIVTLEHFVADSPSNNPFRLPKGSVWFQVTAVVVSYQGV
B3: GFP-Atg11ΔCC2 (protein, UniProt Q12527)
chain: MADADEYSTAPTQQEITPLQTTATIINAISGECITTNVDFFVSLDKFKQFIARKWKIPPDQLLILLPYGNKLKPSMFKELLINRSFTLNDFYVYDRRLFSLVSKPTPTNLLTSKDSNPMNSPNSNDLTETLEYLIKNSHISQYQGSDTIMIKPMPSPLEDADVDLSRLNYHSVTSLLTTNLGWLSALEIDVHYFKSLIPDIIAHIKRIFDGLTVCSQYLKLYCFDVESLYNSNVQFLNQLVDNGMTSKWEKCFNDTLSKLTALEGDSLQKFINIESLLENEKSVKILNHSINGKLNKIKREIDENASFRDIITVNIDRLRQMFTPNESKFELEDQMAESFEVLVSEMRTRSRNVLDKEEEEFNSQEFLKSMNVMLEKDKKESVKTLFTISQALYSQIGELIDLKKSLQKHAVAILGNIAFTQMEILGIKRLLLNECNKDLELYKKYEVEFAQVEDLPLIYGLYLIEKYRRLSWFQQILSFISNFNQDLELFKQNELRTRNKWVKNFGSIATVFCEDLLSSSDFKRLNEYHSHTSPPIIDLLSKTLFETKRFHIIYSNFKNNNNNSSNGNSISPEGSIALKSDDVVKGYKTRIKKLESLLHEFQYSDIGHWPQGVLNTHLKPFRGSATSINKKKFLGASVLLEPANISEVNIDSVSQANNHQIQELESNVDDLLHQLQLLKEENNRKSMQISEMGKKISDLEVEKTAYRETLTNLNQELARLTNEEQSHRTEIFTLNASFKKQLNDIISQDNEKIEKLTGDYDDVSKSRERLQMDLDESNKKHEQEVNLLKADIERLGKQIVTSEKSYAETNSSSMEKGEKFETIPLAEDPGRENQISAYTQTLQDRIFDIISTNIFILENIGLLLTFDNNNNIQIRRVKGLKKGTAQSNILDESTQMLDAHDNSLIKSPVFQKLKDEYELIKSVANGSEKDTQQSIFLGNITQLYDNKLYEVAVIRRFKDIETLAKKLTKENKIKRTLLERFQREKVTLRNFQIGDLALFLPTRENVNSVGSMSSSTSSLSSSFSSVDLSTPPPLDAMSIQSSPSVIHSNVINQASISGRDKNKLMRPWAAFTAFEESTRYFLKDEKGLTKGKEWFVGRIVTLEHFVADSPSNNPFRLPKGSVWFQVTAVVVSYQGV

These binders were tested against T1, Atg9-PA (S. cerevisiae) (assay: co-IP; overexpressed GFP-Atg11 or mutants precipitated by overexpressed Protein A-tagged Atg9; blots probed with anti-GFP; washes at 4°C; as in Meyer et al., 2022).

binding	Binder
binds	B1
binds	B2
no binding	B3
